According to PubChem BioAssay AID1768 (National Center for Advancing Translational Sciences (NCATS), 2009):
The campaign covered roughly 270,000 compounds. About 620 (0.23%) were called active. Inconclusive results, whose numbers are uncertain, are shown with a selection of clear calls. The call rests on the fitted dose curve; in most records, active means well fitted inhibition curve with a large enough effect in the polarisation, with a control signal flat (not every such curve was filed as active); inconclusive means small, poorly fitted or top-dose-only effect, or effect the other way, or a change in a side signal; inactive means no such curve, though single readings can be large or run the other way; the % refers to the polarisation. Potencies of inconclusive entries are doubtful fits and often do not repeat. A note “side channel” means that the fit belongs to a control or component signal, not to the main read-out.

target: Menin (Homo sapiens) (UniProt O00255); experiment: qHTS Assay for Inhibitors Targeting the Menin-MLL Interaction in MLL Related Leukemias: Competition With Texas Red Labeled MLL-derived Mutant Peptide; details: fluorescence polarization; series mostly up to 61.6 µM
Potency means the concentration at half of the fitted maximal effect; tags describe the fitted curve by direction and shape or compound fluorescence and quenching.

Chain of UniProt O00255 (O00255 whole entry, looked up): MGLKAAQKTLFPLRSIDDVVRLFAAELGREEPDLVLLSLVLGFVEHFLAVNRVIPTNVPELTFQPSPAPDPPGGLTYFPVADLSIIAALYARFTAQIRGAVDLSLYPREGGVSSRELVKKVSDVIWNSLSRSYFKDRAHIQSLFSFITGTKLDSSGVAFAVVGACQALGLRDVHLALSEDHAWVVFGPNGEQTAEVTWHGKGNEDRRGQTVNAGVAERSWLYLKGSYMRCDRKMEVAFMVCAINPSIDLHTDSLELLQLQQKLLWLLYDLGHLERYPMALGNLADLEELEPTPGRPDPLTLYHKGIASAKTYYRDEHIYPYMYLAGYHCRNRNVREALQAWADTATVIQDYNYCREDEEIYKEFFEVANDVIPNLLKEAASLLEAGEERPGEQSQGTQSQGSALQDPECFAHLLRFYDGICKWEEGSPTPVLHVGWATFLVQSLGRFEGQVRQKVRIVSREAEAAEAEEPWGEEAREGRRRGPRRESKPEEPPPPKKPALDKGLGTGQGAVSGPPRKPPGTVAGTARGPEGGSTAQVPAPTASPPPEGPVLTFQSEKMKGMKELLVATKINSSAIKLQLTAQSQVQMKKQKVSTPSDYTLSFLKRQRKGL

Row | SMILES | Potency
1 | CCn1cc(C(=O)NCc2cccs2)c(=O)c2ccc(C)nc21 | inconclusive: 3.16 µM [inhibitor, partial curve]
2 | Cc1ccc(CNC(=O)/C=C/c2ccc(S(=O)(=O)NCc3ccco3)cc2)cc1 | inconclusive: 39.8 µM [inhibitor, single point]
3 | CC1CCc2c(sc(NC(=O)COC(=O)c3ccc(O)cc3)c2C#N)C1 (configuration not stated) | inconclusive: 31.6 µM [quencher, side channel, partial curve]
4 | C=CCn1c(=O)c(C(=O)Nc2ccccc2C)c(O)c2ccccc21 | inconclusive: 39.8 µM [inhibitor, single point]
5 | COc1ccccc1CNC(=O)Cn1nnnc1CN(C)C(C)C | inactive
6 | CCN(CC)S(=O)(=O)c1ccc(-c2nnc(SCc3nnc(-c4ccc(C)cc4)o3)n2CC)cc1 | inactive
7 | CC(C)CCOc1cccc(OCC(=O)NC2CCS(=O)(=O)C2)c1 (configuration not stated) | inconclusive: 11.2 µM [inhibitor, partial curve]
8 | CC1(C)N=C(N)N=C(N)N1c1ccc(OCCCOc2ccccc2)c(Cl)c1 | inconclusive: 11.2 µM [inhibitor, partial curve]
9 | CCNC(=S)N=Nc1c(O)n(Cc2ccc(Cl)cc2)c2ccccc12 | inconclusive: 11.2 µM [quencher, side channel, partial curve]
10 | O=C1c2cccnc2C(O)N1Cc1ccc(F)cc1 (configuration not stated) | inactive
11 | COc1ccccc1N1CCN(c2nc(N)c(C#N)c(CC#N)c2C#N)CC1 | inconclusive: 25.1 µM [quencher, side channel, partial curve]
12 | COc1ccc(C(CNc2nc(-c3cccnc3)nc3ccccc23)N(C)C)cc1 (configuration not stated) | inconclusive: 39.8 µM [inhibitor, single point]
13 | CCC(Sc1nc2cc3c(cc2c(=O)n1Cc1ccco1)OCO3)C(=O)Nc1ccccc1OC (configuration not stated) | inactive
14 | Cc1cccc(C2=NN(c3ccc(Br)cc3)[C@@H](C(=O)N3CCOC3=O)[C@@H]2C)c1 | inconclusive: 3.55 µM [quencher, side channel, full curve]
15 | COC(=O)CC1(c2cccc3ccccc23)C(=O)c2ccccc2C1=O | inconclusive: 25.1 µM [quencher, side channel, single point]
16 | CCN1/C(=C\c2ccc3ccccc3[n+]2CC)Sc2cc(C)ccc21 | inconclusive: 5.62 µM [fluorescent, side channel, partial curve]
17 | O=C(CNc1ccccc1)N/N=C/c1c[nH]c2ccccc12 | inconclusive: 15.8 µM [quencher, side channel, partial curve]
18 | O=C(Nc1ccncc1)c1cccc(S(=O)(=O)N2CCCC2)c1 | inactive
19 | O=C1OCCN1C(=O)[C@H]1[C@H](c2ccc(Cl)cc2)C(c2ccc(F)cc2)=NN1c1ccccc1 | inconclusive: 3.16 µM [quencher, side channel, partial curve]

Row | SMILES | Potency
20 | CCCn1c(NCc2cc(OC)ccc2OC)nc2ccccc21 | inconclusive: 35.5 µM [inhibitor, partial curve, poor fit]
21 | Oc1ccc2ccccc2c1/C=N/c1nccs1 | inactive
22 | O=C(Nc1cccc([N+](=O)[O-])c1)Nc1cccc([N+](=O)[O-])c1 | inconclusive: 12.6 µM [quencher, side channel, partial curve]
23 | Cc1ccc2c(c1)c(N=O)c(O)n2Cc1ccc(Cl)cc1 | inconclusive: 5.01 µM [fluorescent, side channel, full curve, poor fit]
24 | COc1ccc(OC)c(Nc2c3ccccc3nc3ccccc23)c1 | inconclusive: 25.1 µM [quencher, side channel, partial curve, poor fit]
25 | C=CC(C)(C)c1[nH]c2ccccc2c1C1=C(O)C(=O)C(c2c[nH]c3c(CC=C(C)C)cccc23)=C(O)C1=O | inconclusive: 10 µM [quencher, side channel, full curve]
26 | CC(C)NCCCOc1ccc(Cl)cc1Br | inconclusive: 39.8 µM [inhibitor, single point]
27 | C#Cc1ccc([C@@H]2C=C(C(=O)OCC=C)O[C@H](OCC)[C@H]2CCCO)cc1 | inconclusive: 2.82 µM [fluorescent, side channel, full curve]
28 | Cc1ccc(CC(=O)Nc2ncc([N+](=O)[O-])s2)cc1 | inconclusive: 31.6 µM [quencher, side channel, single point]
29 | O=C(Nc1ccc2oc(-c3ccc4ccccc4c3)nc2c1)c1cccs1 | inconclusive: 7.08 µM [quencher, side channel, partial curve]
30 | O=C(N/N=C/c1ccc(-c2ccc(S(=O)(=O)Nc3ncccn3)cc2)o1)c1cc2ccccc2cc1O | inconclusive: 22.4 µM [quencher, side channel, partial curve]
31 | COC(=O)N1C2=C(c3ccccc3[C@@H]1CC(=O)Nc1ccc3ccc4cccc5ccc1c3c45)[C@@H]1C(=O)N(c3ccccc3)C(=O)[C@@H]1[C@H](C)C2 | inconclusive: 3.98 µM [inhibitor, single point]
32 | CCc1nc(C)ccc1OC(=O)C12CC3CC(CC(C3)C1)C2 | inconclusive: 17.8 µM [fluorescent, side channel, partial curve]
33 | COc1cccc(-c2cc(=O)c3cc(NC(=O)c4ccccc4)ccc3[nH]2)c1 | inconclusive: 31.6 µM [fluorescent, side channel, partial curve]
34 | O=C(CN1CCOCC1)OCCCc1ccccc1 | inconclusive: 0.562 µM [inhibitor, partial curve, poor fit]
35 | CCOc1ccc(C(NC(=O)CC)c2c(O)ccc3ccccc23)cc1 (configuration not stated) | inactive
36 | COc1cccc(N(C(=O)Cn2nnc(-c3cccs3)n2)C(C(=O)NC2CCCCC2)c2ccncc2)c1 (configuration not stated) | inconclusive: 8.91 µM [inhibitor, single point]
37 | Cc1cc(C)c2cccc(NC(=S)NC(=O)c3ccccc3)c2n1 | inconclusive: 3.55 µM [quencher, side channel, full curve]
38 | C/C(=N\Nc1nc2ccccc2[nH]1)c1ccc2c(c1)OCCO2 | inconclusive: 17.8 µM [quencher, side channel, partial curve]

Row | SMILES | Potency
39 | COc1ccc(/C=N/NS(=O)(=O)c2ccccc2)cc1OS(=O)(=O)c1ccccc1 | inconclusive: 15.8 µM [quencher, side channel, partial curve]
40 | CCOC(=O)c1ccc(NS(=O)(=O)c2ccc(-c3coc(C)n3)cc2)cc1 | inconclusive: 39.8 µM [fluorescent, side channel, single point]
41 | O=C(COc1ccc(C(=O)c2ccccc2)cc1)NC1CCCCC1 | inconclusive: 3.98 µM [fluorescent, side channel, single point]
42 | Cc1cnc(NC(=O)Nc2ccc(Cl)cc2)s1 | inconclusive: 14.1 µM [quencher, side channel, partial curve]
43 | COc1ccc(/C=C2/SC(=O)N(CCC(=O)Nc3ccc(S(=O)(=O)Nc4nccs4)cc3)C2=O)cc1 | inconclusive: 10 µM [quencher, side channel, partial curve]
44 | O=[N+]([O-])c1ccc2cn(-c3ccccc3)nc2c1 | inconclusive: 31.6 µM [quencher, side channel, single point]
45 | CCN(c1cccc(C)c1)S(=O)(=O)c1ccc2[nH]c(=O)c(=O)[nH]c2c1 | inactive
46 | CCOc1ccc2c(c1)-c1c(ssc1=S)C(C)(C)N2 | inconclusive: 14.1 µM [quencher, side channel, partial curve]
47 | COc1cccc(C(=O)NC(=S)Nc2ccc(N(C)C)cc2)c1 | inconclusive: 39.8 µM [quencher, side channel, single point]
48 | CSC(=S)N/N=C(\C)c1ccccc1 | inconclusive: 31.6 µM [quencher, side channel, single point]
49 | CC(=O)NS(=O)(=O)c1ccc(NC(=O)/C=C/c2cn(-c3ccccc3)nc2-c2ccccc2)cc1 | inconclusive: 8.91 µM [quencher, side channel, partial curve]
50 | CCn1c(C)nc2cc(C(=O)NNC(=S)Nc3ccc(Cl)cc3Cl)ccc21 | inconclusive: 20 µM [quencher, side channel, partial curve]
51 | O=S(=O)(NCCS(=O)(=O)N1CCN(c2ccccc2)CC1)c1ccccc1 | inconclusive: 15.8 µM [fluorescent, side channel, single point]
52 | COc1ccc(-c2nc(/C=C3\C(C)=Nc4ccccc43)c(O)o2)cc1 | inconclusive: 6.31 µM [quencher, side channel, partial curve]
53 | COCCNC(=O)CSCc1nc(-c2ccc(SC)cc2)oc1C | inconclusive: 28.2 µM [inhibitor, single point]
54 | NC(=O)c1cc(Cc2ccccc2)sc1NC(=O)c1ccco1 | inconclusive: 25.1 µM [quencher, side channel, partial curve]
55 | CCN(CCO)c1ncnc2c1sc1nc(C(C)C)c3c(c12)CC(C)(C)OC3 | inactive
56 | COCCNC(=O)CSc1nc2ccc(N3CCOCC3)cc2c(=O)n1Cc1ccc(OC)cc1 | inconclusive: 28.2 µM [quencher, side channel, partial curve]
57 | O=C(Cn1cnc2cc([N+](=O)[O-])ccc2c1=O)NC(c1ccccc1)c1ccccc1 | inconclusive: 39.8 µM [quencher, side channel, single point]
